Test results from PubChem BioAssay AID504466 (National Center for Advancing Translational Sciences (NCATS), 2011).
Hit rate of the full screen: of about 330,000 compounds, about 4,200 (1.3%) were called active. The inconclusive results got no clear call from the source; some entries with a clear call stand among them for comparison. Calls follow the shape of the dose curve; as a rule, active = well fitted activation curve with a large enough effect; inconclusive = small, poorly fitted or top-dose-only effect; inactive = no such curve, though single readings can be large or run the other way. Potencies beside an inconclusive call are fits to weak or partial responses and may not hold up.

experiment: qHTS screen for small molecules that induce genotoxicity in human embryonic kidney (HEK293T) cells expressing luciferase-tagged ELG1; details: HEK293T ELG1-luciferase reporter, luminescence, 16 h; series mostly up to 46 µM; also: nearly all actives have a fitted effect of over 60% in size
Procedure, shortened: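 HEK293T cells expressing luciferase-tagged ELG1 were exposed to compound or DMSO vehicle for 16 hr at 37 °C and 5% CO2. Luciferase activity was then measured with ONE-Glo after 30 min at room temperature.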
Potency is read from the fitted curve at half-maximal effect; tags tell the direction and shape of the fitted curve.

SMILES | Potency
Cc1ccc(N2C(=O)c3ccc(N)cc3C2=O)cc1C | inconclusive: 9.2 µM [activator, partial curve]
COCc1ccc(CN2CCc3c([nH]c4ccccc34)C2C(C)(C)C)o1 (centres undefined) | inconclusive: 14.6 µM [activator, single point]
COc1ccc(C(=O)Nc2ccc3ccccc3c2)cc1 | active: 0.461 µM
CCCc1ccc(-c2cc(NC(=O)CSc3nnc(N)s3)n(-c3ccccc3)n2)cc1 | inconclusive: 2.06 µM [activator, full curve, poor fit]
COc1ccc(N=C2C(=Nc3ccc(OC)cc3)N(c3ccccc3)C(=S)N2C(=O)c2ccc(Cl)cc2)cc1 | inconclusive: 20.6 µM [activator, single point]
CCOc1ccc2nc(NC(=O)C(CC)Sc3nc(C)cc(=O)[nH]3)sc2c1 (centres undefined) | inconclusive: 10.3 µM [activator, partial curve]
CC(C)(C)c1ccc(/C=C/C(=O)Nc2cccnc2)cc1 | active: 2.31 µM
CC(C)(C)NC(=O)COc1ccc(-c2ccccc2)cc1 | inconclusive: 11.6 µM [activator, partial curve]
CCOCCCn1c(SCC(=O)NCc2ccco2)nc2c(sc3ccccc32)c1=O | inactive
COc1ccc(NC(=O)CSc2nnc(C)n2C2CC2)cc1S(=O)(=O)N1CCOCC1 | inactive
O=C(N/N=C/c1ccc(O)cc1O)c1ccc(NC(=O)C2CCCCC2)cc1 | inconclusive: 20.6 µM [activator, single point]
CCOC(=O)c1ccc2c(c1)nc(-c1ccccn1)n2CC | inconclusive: 23.1 µM [activator, single point]
CC1CCCCN1C(=O)COC(=O)c1cc(Cl)c2c(c1)OCO2 (centres undefined) | inconclusive: 10.3 µM [activator, partial curve, poor fit]
CCOC(=O)c1ccc(NC(=O)NC(C)C2CCCO2)cc1 (centres undefined) | inconclusive: 23.1 µM [activator, partial curve, poor fit]
Cn1c(CN2CCOCC2)nnc1SCC(=O)Nc1ccc2c(c1)OCCO2 | inactive
O=C(O)c1ccc(N/N=C/c2cc3ccccc3nc2Cl)cc1 | inconclusive: 18.3 µM [activator, partial curve]
CC(C)c1ccc(/C=C/C(=O)O)cc1 | inactive
CC(/C=N/NC(=O)Cc1cccs1)=C\c1ccccc1 | inconclusive: 16.4 µM [activator, partial curve, poor fit]
CCc1ccc(NC(=O)Nc2ccc3c(c2)CCC3)cc1 | inconclusive: 5.8 µM [activator, partial curve, poor fit]
O=C(NCCCN1CCOCC1)c1cn(-c2ccccc2)nc1-c1ccc(F)cc1 | inactive
O=C(CC1S/C(=N/N=C/c2cccs2)NC1=O)Nc1ccccc1F (centres undefined) | inconclusive: 23.1 µM [activator, single point]
COc1ccc(NC(=S)N/C(=N/CS(=O)(=O)c2ccccc2)c2ccccc2)cc1 | inconclusive: 2.59 µM [activator, single point]
COc1ccc(-c2csc(NC(=O)CSc3nnc(Nc4ccccc4C)s3)n2)cc1 | inconclusive: 29.1 µM [activator, single point]
Cc1cccc(-c2nsc(SCC(=O)N3CCCC3)n2)c1 | inconclusive: 4.61 µM [activator, partial curve]
O=C(C=C1SCCS1)/C=C/c1ccco1 | inconclusive: 1.3 µM [activator, full curve]

SMILES | Potency
COc1ccc(NC(=S)NN2C(C)CCCC2C)cc1 (centres undefined) | inactive
O=C(COC(=O)c1cccnc1Cl)c1ccccc1 | inconclusive: 23.1 µM [activator, partial curve, poor fit]
Cc1cnc(C(=O)Nc2ccc(F)cc2)cn1 | inconclusive: 18.4 µM [activator, partial curve]
O=S(=O)(c1ccccc1)c1cnc(-c2ccccc2)nc1N1CCCCC1 | inactive
CCC(C(=O)N1CCC(N2CCCCC2)CC1)n1nc(C)c2sc3ccccc3c2c1=O (centres undefined) | inactive
c1ccc2c(c1)nnn1c3ccccc3nc21 | active: 1.64 µM
Cc1ccc(NC(=O)COC(=O)CCc2c[nH]c3ccccc23)c(C)c1 | inactive
Cc1ccc(-n2ncc3c(NNC(=O)c4ccco4)ncnc32)cc1Cl | inconclusive: 23.1 µM [activator, single point]
OCC1CCCN(C(=S)Nc2ccc(Nc3ccccc3)cc2)C1 (centres undefined) | inconclusive: 2.59 µM [activator, full curve, poor fit]
Cc1sc(NC(=O)C2CCCO2)c(C#N)c1C (centres undefined) | inconclusive: 32.6 µM [activator, partial curve, poor fit]
COc1ccc(-c2nnc3c4ccccc4c(C)nn23)cc1 | inconclusive: 9.2 µM [activator, partial curve, poor fit]
O=c1oc2ccccc2c(O)c1/C=C1\C=Nc2ccccc21 | inactive
Nc1c(-c2cccc([N+](=O)[O-])c2)nc2ccccn12 | inconclusive: 16.4 µM [activator, partial curve, poor fit]
CCCCC(=O)NC(=S)NNC(=O)c1ccc(OC)cc1 | inconclusive: 29.1 µM [activator, single point]
Cc1ccc(C(=O)O/N=C(\N)c2cccc([N+](=O)[O-])c2)cc1 | inconclusive: 6.51 µM [activator, partial curve]
S=C(NCc1ccccc1)Nc1ccc2ccccc2c1 | inconclusive: 7.3 µM [activator, partial curve]
CC(=O)Nc1cccc(NC(=O)c2cccc(-c3ccc(O)cc3)c2)c1 | inactive
CCN1C(=O)c2cccc3c(S(=O)(=O)NCC4CCCO4)ccc1c23 (centres undefined) | active: 14.6 µM
Cc1ccnc(N2C(=O)c3ccccc3C2Nc2ccc3c(c2)OCCO3)c1 (centres undefined) | inconclusive: 16.4 µM [activator, partial curve, poor fit]
O=C(O)c1c(-c2ccc(Cl)cc2)cn2ccccc12 | inconclusive: 2.31 µM [activator, full curve, poor fit]
Oc1ccc(NC(=S)N=Nc2c(O)[nH]c3ccccc23)cc1 | inconclusive: 16.4 µM [activator, partial curve, poor fit]
CC1CCN(C(=O)CSc2nnc3c(n2)[nH]c2ccccc23)CC1 | inactive
O=C1NCCOC(=O)[C@H](Cc2ccc(F)cc2)CC/C=C/C[C@@H]1CC(=O)N(CCO)Cc1ccccc1 | inactive
CC(C)c1ccc(NC(=O)COC(=O)[C@@H]2CCCN2C(=O)c2cccs2)cc1 | inactive
O=C(NC(=S)Nc1ccc(Cc2ccncc2)cc1)c1ccc(F)cc1 | inactive

SMILES | Potency
CS/C(Nc1cc(Cl)ccc1Cl)=C(/C#N)C(=O)c1ccco1 | active: 20.6 µM
COc1ccc2occ(C(=O)c3cccs3)c2c1 | active: 6.51 µM
Cc1ccc(CCNC(=O)CCS(=O)(=O)c2cc3c(cc2C)NC(=O)CO3)cc1 | inactive
COc1ccc(-c2ccc(CCC(=O)O)n2CC(=O)Nc2ccccc2C)cc1 | inactive
Cc1ccc(/C=N/Nc2ccc(C(=O)O)cc2)s1 | inconclusive: 0.13 µM [activator, full curve]
O=C(NC1CCCC1)C(c1ccccc1)N(Cc1cccnc1)C(=O)Cc1cccs1 (centres undefined) | inactive
CC(=O)c1cc2c(cc1NS(=O)(=O)c1ccccc1F)OCO2 | inactive
C/C(=N\Nc1nc2ccccc2[nH]1)c1cc2ccccc2o1 | inconclusive: 18.4 µM [activator, partial curve, poor fit]
Nc1nc(CSC(=S)N2CCOCC2)nc(Nc2ccc(F)cc2)n1 | inconclusive: 14.6 µM [activator, partial curve, poor fit]
CCCCC(=O)Nc1ccc2c(c1)nc1n2CCSC1 | active: 7.31 µM
Cc1cc(C)c(C#N)c(SCc2nc3ccccc3[nH]2)n1 | active: 23.1 µM
COc1ccc(-c2cc3c(=O)n(CC(=O)Nc4ccc(Cl)cc4)ncn3n2)cc1 | inconclusive: 23.1 µM [activator, partial curve, poor fit]
O=C(c1ccc2c3n(nc2c1)-c1ccc(Cl)cc1CO3)N1CCCCC1 | inconclusive: 10.3 µM [activator, partial curve]
NNc1ccc(Cl)c(C(=O)O)c1 | inconclusive: 4.11 µM [activator, full curve]
Cc1ccnc(NC(=O)c2sc3ccccc3c2Cl)c1 | active: 0.92 µM
Cc1ccc(NC(=O)CSc2nc3c(c(=O)[nH]2)CCC3)c(C)c1 | inactive
CC1CCN(c2nc3ccc(C(=O)N4CCN(Cc5ccc6c(c5)OCO6)CC4)cc3s2)CC1 | inconclusive: 2.31 µM [activator, partial curve]
CCCSc1nsc(NC(=O)CCC)n1 | inactive
COc1nc(-c2ccc(C)cc2)ccc1-c1noc(-c2ccco2)n1 | inconclusive: 5.17 µM [activator, partial curve, poor fit]
O=C(N/N=C/c1cc(Br)c(Br)o1)c1cccnc1 | inactive
O=C1CC(c2ccc3c(c2)OCCO3)Oc2ccccc21 (centres undefined) | inconclusive: 7.3 µM [activator, partial curve]
CC1CCN(c2ccc(NC(=O)c3ccc([N+](=O)[O-])o3)cc2)CC1 | active: 3.66 µM
COc1ccc(-c2coc3cc(OC)cc(OC)c3c2=O)cc1 | inconclusive: 23.1 µM [activator, partial curve, poor fit]
Cn1c(CSCc2ccccc2Cl)nnc1SCC(=O)Nc1nccs1 | inconclusive: 23.1 µM [activator, single point]
